Experimental data published in the supplement of paper PMC7125110.
± gives the standard error. This sample is rich in variants without activity.

B1: glmS ribozyme (parent)
chain: AUAAAAGCGCCAGAACUACAGAAAUGUAGUUGACGAGGAGGAGGUUUAUCGAAUUUUCGGCGGAUGCCUCCAAA

Key:
Conditions in all cases: with glucosamine-6-phosphate
glucosamine-6-phosphate [1] = variants of: B1; test: self-cleavage kobs at 40 uM GlcN6P; higher = faster cleavage; RNA array
Summary of the method: (§1)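 Tiles bearing barcoded ribozyme variants, transcribed in situ by E. coli RNA polymerase on sequenced MiSeq chips, were imaged over ~14 h at 37 °C using a hybridised Cy3 probe. Glucosamine-6-phosphate was supplied at 40 μM to 10 mM in HEPES/KCl/Mg(OAc)2 buffer. kobs came from one- or two-exponential decay fits to normalised per-tile medians, and weighted Michaelis–Menten fits then provided kcat and KM.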

glucosamine-6-phosphate [2] = variants of: B1; test: self-cleavage kobs at 10000 uM GlcN6P; higher = faster cleavage; RNA array
Summary of the method: as §1

glucosamine-6-phosphate [3] = variants of: B1; test: self-cleavage kobs at 640 uM GlcN6P; higher = faster cleavage; RNA array
Summary of the method: as §1

glucosamine-6-phosphate [4] = variants of: B1; test: self-cleavage kobs at 160 uM GlcN6P; higher = faster cleavage; RNA array
Summary of the method: as §1

glucosamine-6-phosphate [5] = variants of: B1; test: self-cleavage kobs at 2500 uM GlcN6P; higher = faster cleavage; RNA array
Summary of the method: as §1

Variant | self-cleavage kobs at 40 uM GlcN6P (glucosamine-6-phosphate [1]) [s⁻¹] | self-cleavage kobs at 10000 uM GlcN6P (glucosamine-6-phosphate [2]) [s⁻¹] | self-cleavage kobs at 640 uM GlcN6P (glucosamine-6-phosphate [3]) [s⁻¹] | self-cleavage kobs at 160 uM GlcN6P (glucosamine-6-phosphate [4]) [s⁻¹] | self-cleavage kobs at 2500 uM GlcN6P (glucosamine-6-phosphate [5]) [s⁻¹]
AUAAAAGCGCCAGAACUACAGAAAUGUAGGUGACGAGGAGGAGGUUUAUCGAAUUAUCGGCGGAUACCUCCAAA [U30G U56A G66A] | 5.14e-05 ± 1.7e-05 | 0.00252 ± 0.00061 | – | – | –
AUAAAAGCGCCAGAACUACAGAAAUGUAGUAGGCGAGGAGGAGGUUUAUCGAAUUAUCGGCGGAUGCCUCCAAA [U31A A33G U56A] | < 1e-05 | < 1e-05 | – | – | –
AUAAAAGCGCCAGAACUACAGAAAUGUAGUAGACGGGGAGGAGGUUUAUCGAAUUUUCGGCGGAUGGCUCCAAA [U31A A36G C67G] | < 1e-05 | < 1e-05 | – | – | –
AUAAAAGCGCCAGAACUACAGAAAUGUAGUAGACGAGGAGGCGGUUUAUCGAAUUUUCGGCGGAUGCCUCCAAA [U31A A42C] | < 1e-05 | – | < 1e-05 | < 1e-05 | < 1e-05
AUAAAAGCGCCAGAACUACAGAAAUGUAGUAGACGAGGAGGAGGUUUUUCGAAUUUUCGGCGGAUGCCUCCAAA [U31A A48U] | < 1e-05 | – | – | – | –
AUAAAAGCGCCAGAACUACAGAAAUGUAGUAGACGAGGAGGAGGUUUAUCGAAUUUUCGGCGGAUGUCUCCAAA [U31A C67U] | 0.000116 ± 1.4e-05 | 0.00427 ± 0.00063 | 0.00143 ± 0.00019 | 0.000324 ± 8.8e-05 | 0.00135 ± 0.00029
AUAAAAGCGCCAGAACUACAGAAAUGUAGUAGACAAGGAGGAGGUUUAUCGAAUUUUCGGCGGAUGCCUCCAAA [U31A G35A] | < 1e-05 | < 1e-05 | < 1e-05 | < 1e-05 | < 1e-05
AUAAAAGCGCCAGAACUACAGAAAUGUAGUAGACGAGGAGGAGUUUUAUCGAAUUUUCGGCGGAUGCCUCCAAA [U31A G44U] | < 1e-05 | – | – | – | –
AUAAAAGCGCCAGAACUACAGAAAUGUAGUAGACGAGGAGGAGGUUUAUCGAAUUUUCGCCGGAUGCCUCCAAA [U31A G60C] | < 1e-05 | – | < 1e-05 | – | < 1e-05
AUAAAAGCGCCAGAACUACAGAAAUGUAGUCGACGAGGAGGAGGUUUAUCGAGUUUUCGGCGGAUGCCUCCAAA [U31C A53G] | 0.000158 ± 1.8e-05 | 0.00495 ± 0.00059 | 0.00167 ± 0.00042 | 0.000305 ± 5.6e-05 | 0.00309 ± 0.00042
AUAAAAGCGCCAGAACUACAGAAAUGUAGUCGACGAGGAGGAGGUUUAUCGAAUUUUCGGCGGCUGCCUCCAAA [U31C A64C] | < 1e-05 | – | – | < 1e-05 | –
AUAAAAGCGCCAGAACUACAGAAAUGUAGUCGACGAGGAGGAGGUUUAUCGAAUUUUCGGCGGAUGCCUCAAAA [U31C C71A] | 3.6e-05 ± 1.1e-05 | – | 0.00018 ± 1.9e-05 | 7.42e-05 ± 8.6e-06 | –
AUAAAAGCGCCAGAACUACAGAAAUGUAGUCCACGAGGAGGAGGUUUAUCGAAUCUUCGGCGGAUGCCUUGAAA [U31C G32C U55C C70U C71G] | < 1e-05 | – | < 1e-05 | – | < 1e-05
